The values below come from article PMC4336329 (PLoS ONE, 2015).

Each structure is given as a SMILES string. Among all 310,000 compounds or so, about 14,000 (4.5%) showed an effect of 50% or more. Effects have a minus sign here. The list shows a part of the results.
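Further: peak tail current of the secondary pulse compared with the same well before compound.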

This assay deals with human ether-à-go-go-related gene (hERG) potassium channel (human, UniProt Q12809). The assay is described as follows: primary screen, population patch clamp on CHO cells stably expressing hERG.
human ether-à-go-go-related gene (hERG) potassium channel, sequence (Q12809 whole entry, looked up): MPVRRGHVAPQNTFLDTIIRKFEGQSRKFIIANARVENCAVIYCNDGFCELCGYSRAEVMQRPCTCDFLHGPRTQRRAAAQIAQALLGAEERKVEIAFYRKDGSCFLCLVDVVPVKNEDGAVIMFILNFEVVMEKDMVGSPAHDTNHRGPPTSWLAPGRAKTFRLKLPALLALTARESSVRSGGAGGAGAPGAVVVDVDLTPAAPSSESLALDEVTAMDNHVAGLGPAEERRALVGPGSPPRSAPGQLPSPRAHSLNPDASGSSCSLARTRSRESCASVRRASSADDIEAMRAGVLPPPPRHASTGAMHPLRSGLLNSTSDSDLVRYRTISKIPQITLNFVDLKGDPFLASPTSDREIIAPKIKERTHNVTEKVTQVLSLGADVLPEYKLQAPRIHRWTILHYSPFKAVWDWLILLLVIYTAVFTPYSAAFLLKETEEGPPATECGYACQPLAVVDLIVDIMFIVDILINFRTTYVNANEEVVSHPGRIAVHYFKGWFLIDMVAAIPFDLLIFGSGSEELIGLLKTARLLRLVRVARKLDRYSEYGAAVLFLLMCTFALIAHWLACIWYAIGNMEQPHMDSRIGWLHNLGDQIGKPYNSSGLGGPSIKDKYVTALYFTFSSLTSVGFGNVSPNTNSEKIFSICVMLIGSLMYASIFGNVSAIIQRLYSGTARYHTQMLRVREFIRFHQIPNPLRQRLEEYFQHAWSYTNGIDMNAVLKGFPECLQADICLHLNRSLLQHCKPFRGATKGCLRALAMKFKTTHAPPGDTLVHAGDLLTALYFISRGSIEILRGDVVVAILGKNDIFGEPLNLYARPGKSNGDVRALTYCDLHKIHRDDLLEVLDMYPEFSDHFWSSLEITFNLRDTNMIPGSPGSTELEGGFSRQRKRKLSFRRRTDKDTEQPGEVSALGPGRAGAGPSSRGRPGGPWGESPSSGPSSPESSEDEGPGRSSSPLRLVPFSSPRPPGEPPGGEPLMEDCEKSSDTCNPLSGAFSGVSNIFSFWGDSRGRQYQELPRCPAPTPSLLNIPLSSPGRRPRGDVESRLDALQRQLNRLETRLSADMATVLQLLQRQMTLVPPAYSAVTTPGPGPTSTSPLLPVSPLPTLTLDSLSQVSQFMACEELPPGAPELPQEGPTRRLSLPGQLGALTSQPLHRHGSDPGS
Regarding `CCOCCCn1c(SCC(=O)NC2CCCC2)nc2ccccc2c1=O`, the “hERG current change (%, negative = inhibition) at 10uM” value is on record as -1.74%.
With `CNC(=O)COc1ccc2oc3c(c2c1)CCCC3` the figure was 9.14%; with `CCOc1ccc(OCCn2c(=S)[nH]c3c(N)ncnc32)cc1`, 13.9%; with `C#CCOC(=O)/C(=C/c1ccc(F)cc1)NC(C)=O`, 0.0487%.
In the case of `O=C1CN(C(=O)c2ccc(Cl)c([N+](=O)[O-])c2)c2ccccc2N1`, the “hERG current change (%, negative = inhibition) at 10uM” value is 13.6%.
As for `COC(=O)c1sc2ccccc2c1N`, the “hERG current change (%, negative = inhibition) at 10uM” value is listed as 2.43%.
With `O=C(CSc1nnc(NC(=O)c2c(F)cccc2F)s1)NC1CCCC1`, the “hERG current change (%, negative = inhibition) at 10uM” value amounted to 2.94%.
With `O=C(NC1CCCC1)C1CC(=O)N(c2ccccc2)C1` (stereo not drawn), the “hERG current change (%, negative = inhibition) at 10uM” value is 15.9%.
Consider `CC(C)(C)N(NC(=O)Nc1ccc(Cl)cc1)C(=O)c1ccccc1`, for which the “hERG current change (%, negative = inhibition) at 10uM” value was determined as 7.3%.
For `CCOC(=O)CN(C(=O)CSc1nnc(CNc2ccc(F)cc2)o1)c1ccccc1`, the “hERG current change (%, negative = inhibition) at 10uM” value is reported as -35.3%.
As to `Cc1nc2ccccc2c(=O)n1C1CCCCCC1`, the “hERG current change (%, negative = inhibition) at 10uM” value was -7.64%.
With `Cc1ccc2c(c1)NC(=O)C(CC(=O)NCCCN1CCCC1=O)O2` (stereo not drawn) the figure was 16.5%; with `CSc1nnc(SCC(=O)N(C)c2c(N)n(Cc3ccccc3)c(=O)[nH]c2=O)s1`, 5.79%.
In the case of `Cc1[nH]n(-c2ccccc2)c(=O)c1N=Nc1ccccc1C(=O)N1CCCCC1`, the “hERG current change (%, negative = inhibition) at 10uM” value came out at 28%.
With `CCOC(=O)c1sc(Nc2nc(OC)cc(OC)n2)nc1C`, the “hERG current change (%, negative = inhibition) at 10uM” value is on record as -24.5%.
With `CCN(CC)S(=O)(=O)c1ccc(/C=C/C(=O)OCC(=O)Nc2cccc3ccccc23)cc1` the figure was 4.49%; with `Cc1csc2nc(O)c(C(=O)NC3CCCCCC3)c(=O)n12`, -8.49%.
With `CCN1CCN(S(=O)(=O)c2ccc(Cl)c(C(=O)Nc3nnc(C)s3)c2)CC1` the figure was -2.08%.
For the compound `CSc1nc(SCC(=O)NCC2CCCO2)c2c3c(sc2n1)CN(C)CC3` (stereo not drawn), the “hERG current change (%, negative = inhibition) at 10uM” value is 13%.
`CCN(CC)c1ccc(C(=O)N/N=C(\C)c2cccnc2)cc1`: the “hERG current change (%, negative = inhibition) at 10uM” value turned out to be 7.66%.
With `Cc1cc(NC(=O)CSc2nnnn2C2CCCC2)no1` the figure was 6.19%; with `NC(=O)COc1ccc2cc(-c3ccc(F)cc3)c(=O)oc2c1`, 12%; with `Cc1ccc2nc(-c3cccc(S(=O)(=O)N4CCCC4)c3)cn2c1`, 9.93%.
As for `CCCCNC(=O)C1CCC(CNS(=O)(=O)c2ccc(C)cc2)CC1` (stereo not drawn), the figure is -0.562%; as for `O=C1CCCN1CCC1CCN(C(=S)Nc2ccc(F)cc2)CC1`, -28.9%.
As for `O=C(N/N=C/c1ccncc1)c1cc(Br)ccc1OCc1ccccc1`, the figure is -6.19%; as for `CN1CCN(S(=O)(=O)c2cccc(C(=O)NCCOc3ccccc3)c2)CC1`, -17.5%.
With `COc1ccc(OC)c(-n2c(O)c(C=Nc3c(C)n(C)n(-c4ccccc4)c3=O)c(=O)[nH]c2=O)c1`, the “hERG current change (%, negative = inhibition) at 10uM” value was determined as 21.7%.
With `COc1ccc(F)cc1S(=O)(=O)n1nc(C)cc1C` the figure was 1.04%; with `C[n+]1ccc(C(=O)NCc2ccccc2)cc1.[I-]`, 29.2%; with `CN1CCC(N(CCc2ccccc2)C(=O)CCC(=O)O)CC1`, -1.87%.
On to `C[C@@H]1CC[C@]2(O[C@H](CCO)C[C@@H](O)[C@@H]2O)O1`, for which the “hERG current change (%, negative = inhibition) at 10uM” value is 0.536%.
With `CCCC(=O)c1ccc(-c2ccccc2)cc1`, the “hERG current change (%, negative = inhibition) at 10uM” value is recorded as -4.95%.
Take `Cc1cc(CN(C)C(=O)c2ccc(OC3CCN(CCc4ccccc4)CC3)cc2)on1`: the “hERG current change (%, negative = inhibition) at 10uM” value is recorded as -74.1%.
As for `O=C(O)C1CCCNC1` (stereo not drawn), the figure is -1.74%.
As for `O=C(Oc1c(-c2ccccc2Cl)oc2ccccc2c1=O)c1ccc(Cl)cc1`, the figure is 2.37%.
As for `C[N+]1(C)CCC(OC(=O)C(O)(c2ccccc2)C2CCCC2)C1.[Br-]` (stereo not drawn), the figure is 18.2%; as for `CC(NC(=O)Cc1c(F)cccc1Cl)C1CCCO1` (stereo not drawn), -8.47%.
`O=C1CSC(c2ccccc2[N+](=O)[O-])N1c1ccccc1` (stereo not drawn): the “hERG current change (%, negative = inhibition) at 10uM” value amounted to 17.2%.
Turning to `CCc1cccc(C)c1NC(=S)NCC1CCN(c2ccc(OC)cc2)C1` (stereo not drawn), the “hERG current change (%, negative = inhibition) at 10uM” value is recorded as -5.21%.
As for `O=S(=O)(c1ccc(Br)c2ccccc12)N1CCOCC1`, the “hERG current change (%, negative = inhibition) at 10uM” value is on record as -11.8%.
With `CCc1ccccc1NC(=O)CSc1nnc(CNC(=O)c2ccco2)n1C` the figure was 16.9%.
With `CCOC(OCC)P(=O)(c1ccccc1)c1ccccc1` the figure was -10.3%; with `CCCCCC(C)NC(=O)CN1C(=O)NC(C)(c2ccc3ccccc3c2)C1=O` (stereo not drawn), -14.1%; with `C/C(=N\NC(=S)NC1CCCCC1)c1ccc(C)o1`, -17.3%.
With `CC1CCCCC1NC(=O)CSCC(=O)O` (stereo not drawn) the figure was 10.7%; with `COc1ccc(Cc2c(O)nc(SCC(=O)NC34CC5CC(CC(C5)C3)C4)[nH]c2=O)cc1`, 4.4%; with `COc1ccc(N(CC(=O)N2CCCCCC2)S(=O)(=O)c2ccc(OC)c(OC)c2)cc1`, -24.4%.
As for `CC(=O)NCCNc1ccc([N+](=O)[O-])cn1`, the “hERG current change (%, negative = inhibition) at 10uM” value is on record as -6.44%.
Consider `CCOC(=O)N1CCN(C(=O)C2CC(=O)N(c3ccc(C)cc3)C2)CC1` (stereo not drawn), for which the “hERG current change (%, negative = inhibition) at 10uM” value is listed as -47.9%.
Take `CN(CCc1nc2ccccc2[nH]1)Cc1nc(CC2CC2)no1`: the “hERG current change (%, negative = inhibition) at 10uM” value is -13.7%.
As for `O=C(CC1COc2ccccc2O1)NCc1ccccc1` (stereo not drawn), the figure is -16.6%; as for `CS(=O)(=O)c1ccc2nc(NC(NC(=O)c3ccco3)(C(F)(F)F)C(F)(F)F)sc2c1`, -12.1%; as for `Cc1nn(Cc2ccccc2Cl)c(Cl)c1/C=C/C(=O)OCC(=O)NC1CCS(=O)(=O)C1` (stereo not drawn), 7.43%.
As for `O=C(Cn1cc(SCc2ccccc2Cl)c2ccccc21)N1CCOCC1`, the figure is -29.8%.
With `CCOc1ccc(-c2nc(C#N)c(N3CCN(C)CC3)o2)cc1` the figure was -32.5%; with `Cc1csc(NC(=O)c2cc(-c3ccccc3)nc3ccccc23)n1`, -14.1%.
Take `Cn1cc([N+](=O)[O-])c(C(=O)NCc2ccccc2)n1`: the “hERG current change (%, negative = inhibition) at 10uM” value worked out at 7.55%.
With `CCOC(=O)Cn1nnnc1C(CC)N(Cc1cccs1)Cc1cc2ccc(OC)cc2[nH]c1=O` (stereo not drawn) the figure was -10.4%.
Turning to `Cc1onc(-c2ccccc2)c1C(=O)N(Cc1ccccn1)Cc1ccccn1`, the “hERG current change (%, negative = inhibition) at 10uM” value was -9.65%.
Turning to `CC(C)N1C(=O)N(c2ccc(Cl)cc2)C(C)(O)CC1(C)C` (stereo not drawn), the “hERG current change (%, negative = inhibition) at 10uM” value came out at 9.09%.
Turning to `Cc1cc(N2CCOCC2)n2cc(-c3ccc(F)cc3)nc2n1`, the “hERG current change (%, negative = inhibition) at 10uM” value is -69%.
With `CC(=O)Nc1ccc(S(=O)(=O)N2CCN=C2SCc2ccc([N+](=O)[O-])cc2)cc1` the figure was -29.2%; with `C/C(CC(=O)Nc1ccc(OCc2ccccc2)cc1)=N\NC(=O)C(=O)Nc1ccccc1C`, 4.04%; with `Cc1ccc(Nc2ccc3nonc3c2[N+](=O)[O-])cc1`, 2.88%.
As for `COc1ccc(-n2nc(C(=O)NCC(=O)N3CCN(Cc4ccccc4)CC3)c3ccccc3c2=O)c(OC)c1`, the figure is -28.6%; as for `Cc1ccc(NCc2n[nH]c(=S)n2-c2ccccc2)cc1Cl`, 6.08%; as for `Cc1ccccc1-c1nnc(SCC(=O)NC2CCCCC2)o1`, -10.5%.
Consider `CCOC(=O)c1ccc(Nc2cc(C)nc3nc(C)nn23)cc1`, for which the “hERG current change (%, negative = inhibition) at 10uM” value was -53%.
As for `CCOc1ccc(Br)cc1S(=O)(=O)Nc1ccc(NC(=O)c2ccccc2F)cc1`, the figure is 8.7%; as for `COC(=O)/C=C1\S/C(=N/NC(=O)c2ccc(OC)cc2)NC1=O`, 8.98%; as for `COc1ccc(CNC(=O)COc2ccc(Br)c(C)c2)cc1`, 9.09%.
With `Cn1c(=O)c2c(nc(N/N=C/c3ccc(OC(=O)c4ccco4)cc3)n2Cc2ccccc2)n(C)c1=O`, the “hERG current change (%, negative = inhibition) at 10uM” value is given as -4.61%.
As for `Cc1ccc(NS(=O)(=O)c2ccc(C(=O)N3CCOCC3)cc2)cc1`, the “hERG current change (%, negative = inhibition) at 10uM” value came out at 10.7%.
With `CC(C)N1CCC(N2CCN(C/C=C/c3ccccc3)CC2CCO)CC1` (stereo not drawn) the figure was -7.17%; with `Cc1sc(-c2ccncc2)nc1OC(=O)c1cc(Cl)cc(Cl)c1`, 10.2%; with `Cc1ccc(NC(=O)Cn2c(=O)cnc3ccccc32)cc1S(=O)(=O)N(C)C`, -24.6%.
With `COc1ccc([C@H]2CC(=O)C=C(c3ccccc3OC)C2)cc1OC` the figure was -10.8%; with `COc1ccccc1CNC(=O)OCc1nccnc1C(=O)Nc1ccc(Br)cn1`, 13.8%.
As for `Cc1cc(C)n(CCCC(=O)O)n1`, the “hERG current change (%, negative = inhibition) at 10uM” value was 35.2%.
As for `OCC1OC(n2nc3ccccc3n2)C(O)C(O)C1O` (stereo not drawn), the figure is 5.81%; as for `Cc1ccc(C)c(NC(=O)CN(C)C(=O)c2ccc(S(=O)(=O)N3CCCCCC3)cc2)c1`, -13.7%; as for `Cc1oc2ccc(OCc3ccc(Cl)cc3)cc2c1C(=O)O`, 33.7%.
With `COc1cc2c(cc1OC)C(C)N(S(=O)(=O)c1cn(C)c(C)n1)CC2` (stereo not drawn) the figure was 10.5%; with `COc1ccc(OC)c(NC(=O)CSc2nc(=O)n(Cc3ccccn3)c3c2CCC3)c1`, -30.2%.
With `O=C(CSc1nnc(-c2ccccc2NC(=O)c2ccccc2)o1)OC1CCCCC1` the figure was -17.2%.
Regarding `Cc1cccc(C)c1NC(=O)CN(C)C(=O)/C=C/c1cccs1`, the “hERG current change (%, negative = inhibition) at 10uM” value came to 12.6%.
Turning to `CCCCCOC(=O)C1=C(C)NC(=O)NC1c1ccccc1OCC` (stereo not drawn), the “hERG current change (%, negative = inhibition) at 10uM” value is -16%.
Regarding `C=CCn1c(=O)/c(=C/c2ccc(Cl)cc2)s/c1=C(/C#N)c1nnc2n1CCCCC2`, the “hERG current change (%, negative = inhibition) at 10uM” value was -43%.
As for `COc1ccc(CC(=O)NC2CCCc3ccccc32)cc1` (stereo not drawn), the figure is 11.5%.
